Hit rate of the full screen: of about 410,000 compounds, about 5,000 (1.2%) were called active. This list was built around the results that the source calls inconclusive (neither active nor inactive); the mix of calls is not that of the screen. The call rests on the fitted dose curve; in most records, active means well fitted inhibition curve with a large enough effect; inconclusive means small, poorly fitted or top-dose-only effect; inactive means no such curve, though single readings can be large or run the other way. A potency beside an inconclusive call is a rough fit, not a confirmed value.
assay: qHTS for Inhibitors of TGF-b; settings: HepG2 CAGA-GFP TGF-b/SMAD3 reporter, GFP fluorescence, 18 h, TGF-beta stimulated, 500 pg/mL final; series mostly up to 46.1 µM; activity, negative = inhibition: at the top concentration; further: nearly all actives have a fitted effect of over 65% in size
How it was run: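 HEPG2 CAGA-GFP cells (1000/well, DMEM with 1% FBS) were pre-incubated 2 h at 37 degrees C, given compound by pin tool, then stimulated with TGF-beta at 500 pg/mL final for 18 h before per-cell GFP fluorescence imaging.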
On the % scale 0 is the no-effect control and ±100 the full control effect; potency means the concentration at half of the fitted maximal effect; tags describe the fitted curve by direction and shape.

| Compound | Potency | activity, negative = inhibition |
| --- | --- | --- |
| CCCCNc1c(-c2ccc(-c3ccc(C(C)=O)cc3)c(OC)c2)nc2cc(C)ccn12 | inconclusive: 35.5 µM [inhibitor, single point] |  |
| CCOc1cc(/C=C2\CN(CC)C/C(=C\c3ccc(O)c(OCC)c3)C2=O)ccc1O | active: 5.62 µM |  |
| O=C(C1CCC(Cn2c(=O)c3sccc3n(Cc3ccc(F)cc3)c2=O)CC1)N1CCOCC1 (stereo not given) | inconclusive: 1.26 µM [inhibitor, full curve, poor fit] |  |
| O=C(CP(=O)(c1ccccc1)c1ccccc1)Nc1nc2ccc(Cl)cc2s1 | inconclusive: 35.5 µM [inhibitor, partial curve, poor fit] |  |
| COc1ccc(CCn2c(C)cc(C(=O)COC(=O)c3cnccn3)c2C)cc1 |  | inactive: -1.98% |
| O=C(COC(=O)/C=C/c1ccc(F)cc1)Nc1ccc(Cl)cn1 | inconclusive: 25.1 µM [inhibitor, single point] |  |
| Cc1ccc(Nc2cc(C)nc3nncn23)c(C)c1 | inconclusive: 0.891 µM [inhibitor, full curve, poor fit] |  |
| CCN1CCN(c2cc(SC(C)C)nc(-c3ccc(OC)cc3)n2)CC1 | inconclusive: 20 µM [inhibitor, single point] |  |
| O=C(N/N=C/c1ccc(OCc2ccccc2)cc1)c1ccc(O)cc1 | inconclusive: 12.6 µM [inhibitor, partial curve, poor fit] |  |
| CS(=O)(=O)Nc1ccc(C(=O)Nc2ccc3ccccc3c2)cc1 |  | inactive: 17.1% |
| CN(C(=O)c1cccc(NC(=O)Cc2ccc(NC(=O)C3CCCN(C(=O)C4CCCCC4)C3)cc2)c1)C1CCCCC1 (stereo not given) | inconclusive: 12.6 µM [inhibitor, partial curve] |  |
| O=C(NCC1CCCO1)C(=Cc1cccc([N+](=O)[O-])c1)C(=O)NCC1CCCO1 (stereo not given) | inconclusive: 35.5 µM [inhibitor, single point] |  |
| COc1cc2oc(=O)cc(-c3cccc(-c4ccc(C(F)(F)F)cc4)c3)c2c(OC)c1OC | inconclusive: 10 µM [inhibitor, partial curve, poor fit] |  |
| Cc1ccc(S(=O)(=O)/N=C2\C=C(Nc3cccc(C(=O)O)c3)C(=O)c3ccccc32)cc1 | active: 12.6 µM |  |
| CCN(CC)S(=O)(=O)c1ccc2[nH]c(=O)cc(C(=O)Nc3ccc(C)c(S(=O)(=O)N(CC)CC)c3)c2c1 |  | inactive: -23.6% |
| CC(C)C1OC(c2cccc(NC(=O)c3cccs3)c2)OCC1(C)C (stereo not given) | inconclusive: 35.5 µM [inhibitor, single point] |  |
| Cc1cn2c(=O)cc(COc3ccc(NC(=O)COc4ccccc4)cc3)nc2s1 | inconclusive: 0.0891 µM [inhibitor, full curve, poor fit] |  |
| O=C(Nc1nc2c(Br)cccc2s1)C1CC1 | inconclusive: 11.2 µM [inhibitor, single point] |  |
| COCCN1Cc2cc3cc(C)ccc3nc2SC1=Nc1cccc(OC)c1 | inconclusive: 22.4 µM [inhibitor, single point] |  |
| CC1=C(C(=O)N(C(C)C)C(C)C)CC(CC(=O)NCCCN(C)C)C(=O)N1Cc1ccc(C(C)(C)C)cc1 (stereo not given) | inconclusive: 35.5 µM [inhibitor, single point] |  |
| Cc1ccc(Cn2c(C)c(C(=O)NCc3ccc(Cl)c(Cl)c3)sc2=O)cc1 | inconclusive: 35.5 µM [inhibitor, single point] |  |
| Cc1ccc(F)cc1C(=O)N1CCCCC1c1cc(C(=O)NC(C)C)no1 (stereo not given) |  | inactive: 23.2% |

| Compound | Potency | activity, negative = inhibition |
| --- | --- | --- |
| CCOc1ccccc1OCCCC(=O)Nc1ccc(Cl)c(S(=O)(=O)N2CCOCC2)c1 | inconclusive: 17.8 µM [inhibitor, single point] |  |
| COc1ccc2nc(SCC(=O)Nc3ccc4sc(C)nc4c3)c(C#N)cc2c1 | inconclusive: 0.316 µM [inhibitor, partial curve, poor fit] |  |
| Cc1ccccc1NC(=O)c1ccc(Nc2c([N+](=O)[O-])cc([N+](=O)[O-])c3ccccc23)cc1 | inconclusive: 3.55 µM [inhibitor, full curve] |  |
| Cc1nn(C)c(C)c1S(=O)(=O)N(CC(=O)N1CCc2ccccc2C1)c1ccc(C(C)C)cc1 | inconclusive: 35.5 µM [inhibitor, partial curve, poor fit] |  |
| COc1ccc(NS(=O)(=O)c2ccc(Oc3c(C#N)cccc3C#N)cc2)cc1 | inconclusive: 10 µM [inhibitor, partial curve, poor fit] |  |
| Cn1c(=O)n(CC(=O)NCC2CCCO2)c(=O)c2c3c(sc21)CCCC3 (stereo not given) |  | inactive: -7.82% |
| NS(=O)(=O)c1cccc(NC(=O)CSc2ncnc3ccccc23)c1 | inconclusive: 12.6 µM [inhibitor, partial curve] |  |
| CS(=O)(=O)N1CCN(C(=S)NCc2ccc(F)cc2)CC1 | inconclusive: 3.16 µM [inhibitor, partial curve, poor fit] |  |
| Cc1cccc(C)c1NC(=O)C(c1ccc([N+](=O)[O-])cc1)N(C)C(=O)c1ccccn1 (stereo not given) |  | inactive: -6.18% |
| Cc1ccnc(NC(=O)c2ccc(NC(=O)c3ccco3)cc2)c1 | inconclusive: 22.4 µM [inhibitor, single point] |  |
| O=C(COc1ccccc1)Nc1ccccc1Oc1ccccc1 |  | inactive: -9.09% |
| CCCCOc1ccc(-c2nnn(CC(=O)Nc3ncc(CC(=O)OCC)s3)n2)cc1 | inconclusive: 35.5 µM [inhibitor, single point] |  |
| COC(=O)c1cc2nc(-c3ccc(OC)c(OC)c3)cc(C(F)(F)F)n2n1 |  | inactive: 27.2% |
| Cc1ccc(-c2nc(CS(=O)CC(=O)NC3CCCC3)c(C)o2)cc1 (stereo not given) | inconclusive: 20 µM [inhibitor, single point] |  |
| COc1cccc(CNC(=O)CCc2c(C)c3ccc(O)c(C)c3oc2=O)c1 | inconclusive: 35.5 µM [inhibitor, single point] |  |
| COCCNc1nc(NCC2CCCCC2)c2sc(-c3ccccc3)cc2n1 | inconclusive: 25.1 µM [inhibitor, single point] |  |
| COc1ccc(-c2nc3cccc(C)n3c2NCc2ccco2)cc1OC |  | inactive: -22.1% |
| Cc1ccc(-n2ncc(C(=O)NCCCN3CCc4ccccc4C3)c2C2CCN(C(=O)OC(C)(C)C)CC2)c(C)c1 | inconclusive: 25.1 µM [inhibitor, partial curve, poor fit] |  |
| CCCCc1ccc(NC(=O)CSC2=C(C#N)C(c3ccco3)C3=C(CCCC3=O)N2)cc1 (stereo not given) | inconclusive: 31.6 µM [inhibitor, single point] |  |
| O=C(CN1C(=O)CCS(=O)(=O)c2ccccc21)Nc1ccccc1F |  | inactive: -0.479% |
| COC(=O)CSc1nc(C2CC2)nc2ccccc12 | inconclusive: 1.26 µM [inhibitor, full curve, poor fit] |  |
| COc1cc(NS(=O)(=O)c2ccc(C)cc2C)cc(OC)c1OC |  | inactive: 0.0287% |

| Compound | Potency | activity, negative = inhibition |
| --- | --- | --- |
| CCCc1[nH]nc2c1C(C1CC=CCC1)C(C#N)=C(N)O2 (stereo not given) | inconclusive: 11.2 µM [inhibitor, partial curve] |  |
| O=C(COC(=O)CNC(=O)c1cc(Cl)cc([N+](=O)[O-])c1)NC(=O)NCc1ccco1 |  | inactive: 5.16% |
| Clc1ccc(Cc2noc(CN3CCN(c4ccccc4)CC3)n2)c(Cl)c1 | inconclusive: 22.4 µM [inhibitor, single point] |  |
| COc1ccc(CN(C)C(=O)C(Cc2ccccc2)NC(=O)c2ccccc2)cc1F (stereo not given) | inconclusive: 22.4 µM [inhibitor, single point] |  |
| Cc1cc(NCc2ccccn2)nc2ccccc12 |  | inactive: 6.22% |
| CCOc1ccc(CN2CCc3nc(N4CCN(c5ccccn5)CC4)ncc3C2)cc1OC | inconclusive: 12.6 µM [inhibitor, partial curve] |  |
| CN(Cc1ccccc1)C(=O)COC(=O)c1ccccc1NS(=O)(=O)c1cccc(N)c1 | inconclusive: 12.6 µM [inhibitor, single point] |  |
| COc1ccc(OCCNC(=O)CCCO)cc1 |  | inactive: 4.7% |
| COC(=O)c1cc(Nc2cc(C)c3ccc(O)cc3n2)cc(C(=O)OC)c1 |  | inactive: -17.3% |
| CC12CC(NC(=O)N1CCc1ccccc1)c1cc(Cl)ccc1O2 (stereo not given) | inconclusive: 6.31 µM [inhibitor, single point] |  |
| CC(=O)c1cc2c(cc1NC(=O)Cn1nc(-c3ccc(C)cc3)ccc1=O)OCO2 | inconclusive: 5.62 µM [inhibitor, single point] |  |
| COc1ccc(C2(c3ccc(OC)cc3)NC(=O)N(CC(=O)N(C)C3CCC(C)CC3)C2=O)cc1 (stereo not given) | inconclusive: 35.5 µM [inhibitor, single point] |  |
| CCOC(=O)C1=C(C)N(C)C(=S)NC1c1ccc(Cl)cc1Cl (stereo not given) | inconclusive: 35.5 µM [inhibitor, single point] |  |
| Fc1ccc(Nc2nc(N3CCOCC3)nc(N3CCOCC3)n2)cc1Cl |  | inactive: -2.09% |
| O=C(Nc1ccc(N=Nc2ccccc2)cc1)c1ccccc1Cl |  | inactive: -26.5% |
| C=CCOc1nc2c(c(=O)n(Cc3ccc(Cl)cc3)c(=O)n2C)n1C |  | inactive: -23.9% |
| Cc1ccccc1CSc1nnnn1-c1ccc(C(N)=O)cc1 | inconclusive: 2.51 µM [inhibitor, partial curve] |  |
| COc1cccc(/C=N/Nc2ncnc3scc(-c4ccccc4)c23)c1O | inconclusive: 5.01 µM [inhibitor, single point] |  |
| CCc1nnc(N/N=C\c2ccc(OC(C)=O)c(OC)c2)n1N | inconclusive: 7.94 µM [inhibitor, partial curve, poor fit] |  |
| Cc1ccc(N2C(=O)C(Cl)=C(Nc3c(C)n(C)n(-c4ccccc4)c3=O)C2=O)cc1 | inconclusive: 35.5 µM [inhibitor, partial curve, poor fit] |  |
| CC(OC(=O)CN1C(=O)C2CCCCC2C1=O)C(=O)Nc1ncc(Cl)cc1Cl (stereo not given) | inconclusive: 17.8 µM [inhibitor, partial curve] |  |

From PubChem BioAssay AID588855 (National Center for Advancing Translational Sciences (NCATS), 2011)
